We go through three molecules from publication PMC9360036.

Amino acid sequences for entries named in this document (tags omitted).
UniProt Q5VSL9: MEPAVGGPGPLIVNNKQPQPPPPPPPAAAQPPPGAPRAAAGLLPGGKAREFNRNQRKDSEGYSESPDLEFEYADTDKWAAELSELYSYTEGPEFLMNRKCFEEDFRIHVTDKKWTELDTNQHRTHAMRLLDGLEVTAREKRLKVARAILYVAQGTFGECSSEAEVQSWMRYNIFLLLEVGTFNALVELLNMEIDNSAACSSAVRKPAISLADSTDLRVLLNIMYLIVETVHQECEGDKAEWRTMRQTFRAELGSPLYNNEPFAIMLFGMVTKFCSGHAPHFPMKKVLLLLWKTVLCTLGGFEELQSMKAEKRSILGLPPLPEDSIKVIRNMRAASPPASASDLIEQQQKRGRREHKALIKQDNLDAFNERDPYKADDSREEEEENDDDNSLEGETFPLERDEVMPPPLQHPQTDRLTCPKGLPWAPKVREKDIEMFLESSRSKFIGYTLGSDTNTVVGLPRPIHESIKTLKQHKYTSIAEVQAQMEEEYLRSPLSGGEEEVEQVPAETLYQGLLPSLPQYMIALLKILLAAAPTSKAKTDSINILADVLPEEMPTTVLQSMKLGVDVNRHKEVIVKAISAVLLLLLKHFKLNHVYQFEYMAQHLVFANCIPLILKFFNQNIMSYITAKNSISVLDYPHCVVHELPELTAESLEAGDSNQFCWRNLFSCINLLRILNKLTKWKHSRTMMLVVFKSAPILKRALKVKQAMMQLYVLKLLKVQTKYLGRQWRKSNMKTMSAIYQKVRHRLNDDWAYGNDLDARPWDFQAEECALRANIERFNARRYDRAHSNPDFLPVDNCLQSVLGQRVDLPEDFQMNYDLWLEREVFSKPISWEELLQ

No constants are given. Whether binding was seen depends on the method and setting. In cells and extracts the contact can be indirect. Some entries that bind do so weakly or less than the wild type.

Assay [1] addresses T1, MAP4K4 intermediate domain 2 (ID2, 635-954) (human) (UniProt O95819).
T1 sequence: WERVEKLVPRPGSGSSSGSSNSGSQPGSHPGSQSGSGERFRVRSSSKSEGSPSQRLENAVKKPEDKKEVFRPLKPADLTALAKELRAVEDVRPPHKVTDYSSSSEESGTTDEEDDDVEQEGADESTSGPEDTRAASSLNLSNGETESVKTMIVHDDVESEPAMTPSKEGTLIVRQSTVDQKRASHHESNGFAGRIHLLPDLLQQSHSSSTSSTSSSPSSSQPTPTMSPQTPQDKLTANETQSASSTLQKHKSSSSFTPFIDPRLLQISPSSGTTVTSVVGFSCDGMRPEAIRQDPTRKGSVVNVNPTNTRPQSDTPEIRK
Briefly: co-IP; anti-FLAG antibody on Dynabeads Protein G, lysates of DAOY cells stably expressing FLAG-tagged MAP4K4 constructs (50 mM Tris-HCl pH 7.5, 150 nM NaCl as printed, 0.3% NP-40), 3 h at 4 °C; immunoblot. For orientation: A western blot detects proteins with antibodies after separation by electrophoresis.

Assay [2] deals with T2, MAP4K4 intermediate domain 1 (ID1, 290-634) (human) (UniProt O95819).
T2 sequence: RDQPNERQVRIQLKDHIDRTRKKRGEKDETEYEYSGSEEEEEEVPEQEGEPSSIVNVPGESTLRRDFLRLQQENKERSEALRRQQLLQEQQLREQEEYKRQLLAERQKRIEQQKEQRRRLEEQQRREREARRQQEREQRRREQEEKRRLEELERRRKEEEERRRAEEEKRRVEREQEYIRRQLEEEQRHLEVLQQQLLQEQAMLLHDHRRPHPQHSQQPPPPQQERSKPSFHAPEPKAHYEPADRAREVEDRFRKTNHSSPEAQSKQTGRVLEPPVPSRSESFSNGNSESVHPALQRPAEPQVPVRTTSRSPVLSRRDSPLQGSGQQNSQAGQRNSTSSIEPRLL
The assay is described as above.

Assay [3] addresses T3, MAP4K4 kinase domain (KD, 1-289) (human) (UniProt O95819).
T3 sequence: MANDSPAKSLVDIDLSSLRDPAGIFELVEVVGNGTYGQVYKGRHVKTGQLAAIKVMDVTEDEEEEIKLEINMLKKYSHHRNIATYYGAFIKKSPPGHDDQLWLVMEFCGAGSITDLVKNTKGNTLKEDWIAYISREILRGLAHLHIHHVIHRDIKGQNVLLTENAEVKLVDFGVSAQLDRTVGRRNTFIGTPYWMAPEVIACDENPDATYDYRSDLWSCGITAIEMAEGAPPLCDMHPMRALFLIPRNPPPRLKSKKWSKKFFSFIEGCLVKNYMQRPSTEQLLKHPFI
Described as above.

In assay [4] the target is 3xFLAG-BioID2-MAP4K4 (human) (UniProt O95819). Briefly: co-IP; anti-FLAG antibody on Dynabeads Protein G, HEK-293T lysate (50 mM Tris-HCl pH 7.5, 150 nM NaCl as printed, 0.3% NP-40), 3 h at 4 °C; immunoblot.
Assay [5] has as its target STRN-interacting protein 1 (STRIP1) (human (endogenous in DAOY)) (UniProt Q5VSL9). Briefly: co-IP; anti-STRN4 or anti-STRIP1 antibody on Dynabeads Protein G, endogenous proteins in lysates of DAOY cells transfected for 48 h with the indicated siRNA (among them against MAP4K4 and STRN3); normal rabbit IgG as control; immunoblot.
Assay [6] addresses full-length MAP4K4-FLAG (human) (UniProt O95819). Briefly: co-IP; anti-FLAG IP (Dynabeads Protein G) from DAOY cells expressing FLAG-tagged MAP4K4, siCTRL or siSTRN3, ± 100 ng/ml bFGF 15 min; washed in lysis buffer and kinase assay buffer; the IP fraction was then used for the in vitro VASP kinase assay.

For the molecule “STRN-interacting protein 1 (STRIP1) (from UniProt Q5VSL9 1-837)”, the binding entry in assay [1], in assay [2] and in assay [3] was “no binding” in each case.

B1: striatin 3 (STRN3) (protein, UniProt Q13033 1-797)
chain: MDELAGGGGGGPGMAAPPRQQQGPGGNLGLSPGGNGAAGGGGPPASEGAGPAAGPELSRPQQYTIPGILHYIQHEWARFEMERAHWEVERAELQARIAFLQGERKGQENLKKDLVRRIKMLEYALKQERAKYHKLKYGTELNQGDLKMPTFESEETKDTEAPTAPQNSQLTWKQGRQLLRQYLQEVGYTDTILDVRSQRVRSLLGLSNSEPNGSVETKNLEQILNGGESPKQKGQEIKRSSGDVLETFNFLENADDSDEDEENDMIEGIPEGKDKHRMNKHKIGNEGLAADLTDDPDTEEALKEFDFLVTAEDGEGAGEARSSGDGTEWDKDDLSPTAEVWDVDQGLISKLKEQYKKERKGKKGVKRANRTKLYDMIADLGDDELPHIPSGIINQSRSASTRMTDHEGARAEEAEPITFPSGGGKSFIMGSDDVLLSVLGLGDLADLTVTNDADYSYDLPANKDAFRKTWNPKYTLRSHFDGVRALAFHPVEPVLVTASEDHTLKLWNLQKTVPAKKSASLDVEPIYTFRAHIGPVLSLAISSNGEQCFSGGIDATIQWWNMPSPSVDPYDTYEPNVLAGTLVGHTDAVWGLAYSGIKNQLLSCSADGTVRLWNPQEKLPCICTYNGDKKHGIPTSVDFIGCDPAHMVTSFNTGSAVIYDLETSQSLVILSSQVDSGLQSNNHINRVVSHPTLPVTITAHEDRHIKFFDNKTGKMIHSMVAHLDAVTSLAVDPNGIYLMSGSHDCSIRLWNLDSKTCVQEITAHRKKLDESIYDVAFHSSKAYIASAGADALAKVFV
In the case of B1, the binding entry in assay [4], in assay [5] and in assay [6] was “binds” in each case.

B2: striatin 4 (STRN4) (protein, UniProt Q9NRL3 1-753)
chain: MMEERAAAAVAAAASSCRPLGSGAGPGPTGAAPVSAPAPGPGPAGKGGGGGGSPGPTAGPEPLSLPGILHFIQHEWARFEAEKARWEAERAELQAQVAFLQGERKGQENLKTDLVRRIKMLEYALKQERAKYHKLKFGTDLNQGEKKADVSEQVSNGPVESVTLENSPLVWKEGRQLLRQYLEEVGYTDTILDMRSKRVRSLLGRSLELNGAVEPSEGAPRAPPGPAGLSGGESLLVKQIEEQIKRNAAGKDGKERLGGSVLGQIPFLQNCEDEDSDEDDELDSVQHKKQRVKLPSKALVPEMEDEDEEDDSEDAINEFDFLGSGEDGEGAPDPRRCTVDGSPHELESRRVKLQGILADLRDVDGLPPKVTGPPPGTPQPRPHEDVFIMDTIGGGEVSLGDLADLTVTNDNDLSCDLSDSKDAFKKTWNPKFTLRSHYDGIRSLAFHHSQSALLTASEDGTLKLWNLQKAVTAKKNAALDVEPIHAFRAHRGPVLAVAMGSNSEYCYSGGADACIHSWKIPDLSMDPYDGYDPSVLSHVLEGHGDAVWGLAFSPTSQRLASCSADGTVRIWDPSSSSPACLCTFPTASEHGVPTSVAFTSTEPAHIVASFRSGDTVLYDMEVGSALLTLESRGSSGPTQINQVVSHPNQPLTITAHDDRGIRFLDNRTGKPVHSMVAHLDAVTCLAVDPNGAFLMSGSHDCSLRLWSLDNKTCVQEITAHRKKHEEAIHAVACHPSKALIASAGADALAKVFV
In the case of B2, the binding result is “binds” in assay [5], “no binding” in assay [1], “no binding” in assay [2] and “no binding” in assay [3].
